Our source for the Kd values is patent US20170334979A1 (published 2017).

In the test the target is 10GE. As to the kind of experiment: purified sdAb binding.
Sequence of 10GE (P07724 25-608): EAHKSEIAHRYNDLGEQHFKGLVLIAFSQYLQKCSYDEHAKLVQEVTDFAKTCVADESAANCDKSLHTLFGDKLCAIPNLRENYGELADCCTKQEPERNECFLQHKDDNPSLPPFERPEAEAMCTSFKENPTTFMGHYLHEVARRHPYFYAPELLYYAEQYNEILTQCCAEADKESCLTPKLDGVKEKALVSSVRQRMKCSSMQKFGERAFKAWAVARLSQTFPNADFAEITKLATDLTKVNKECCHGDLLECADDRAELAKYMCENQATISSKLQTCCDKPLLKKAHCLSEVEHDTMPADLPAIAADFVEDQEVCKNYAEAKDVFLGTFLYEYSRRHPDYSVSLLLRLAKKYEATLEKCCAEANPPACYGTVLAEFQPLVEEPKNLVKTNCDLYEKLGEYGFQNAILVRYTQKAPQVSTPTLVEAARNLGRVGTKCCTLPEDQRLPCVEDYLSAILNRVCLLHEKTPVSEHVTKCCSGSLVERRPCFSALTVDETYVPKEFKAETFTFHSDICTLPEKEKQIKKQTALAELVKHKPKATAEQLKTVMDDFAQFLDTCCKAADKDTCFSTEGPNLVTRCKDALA

B1: mouse serum albumin (other)
chain: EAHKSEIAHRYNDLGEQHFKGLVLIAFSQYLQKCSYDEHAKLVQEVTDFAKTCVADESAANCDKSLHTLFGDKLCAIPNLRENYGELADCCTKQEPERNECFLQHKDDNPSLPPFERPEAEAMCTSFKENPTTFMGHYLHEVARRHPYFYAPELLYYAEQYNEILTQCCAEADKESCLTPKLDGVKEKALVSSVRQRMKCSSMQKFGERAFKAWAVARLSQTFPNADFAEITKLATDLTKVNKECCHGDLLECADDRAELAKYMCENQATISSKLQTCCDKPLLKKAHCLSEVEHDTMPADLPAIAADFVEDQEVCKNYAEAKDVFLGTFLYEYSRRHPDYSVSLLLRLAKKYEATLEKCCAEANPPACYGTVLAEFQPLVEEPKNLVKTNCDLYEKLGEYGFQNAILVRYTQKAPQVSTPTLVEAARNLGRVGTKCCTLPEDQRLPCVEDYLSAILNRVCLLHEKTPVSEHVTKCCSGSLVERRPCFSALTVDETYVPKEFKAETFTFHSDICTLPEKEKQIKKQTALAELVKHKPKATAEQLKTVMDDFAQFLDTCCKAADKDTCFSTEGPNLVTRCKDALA
Molecule B1 had a Kd of 0.0161 µM.

A word on the Kd: it is the equilibrium constant for the complex coming apart. Higher therefore signals weaker binding.
